# Assay results published in the supplement of paper PMC9446081.
# Screen size: about 39,000 compounds; about 220 (0.56%) showed activity. Some of the results follow.
# System: Escherichia coli K-12 BW25113
# Experiment: relative growth (OD600 normalised to plate interquartile mean) (fraction); higher = less growth inhibition, active = 0.2 or less
# Details: 50 µM; LB; incubation time: overnight (16-24 h)
# 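Note: static incubation at 37 °C against the wild-type strain, values averaged over two biological replicates.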
row,SMILES,relative growth
1,C[C@H](CO)N1C[C@H](C)[C@@H](CN(C)Cc2ccc(C(=O)Nc3ccccc3N)cc2)Oc2ccc(NC(=O)NC3CCCCC3)cc2CC1=O,inactive: 0.989
2,C[C@@H]1CN([C@@H](C)CO)C(=O)c2cc(NC(=O)C3CCCCC3)ccc2O[C@@H]1CN(C)Cc1ccc(C(F)(F)F)cc1,inactive: 1.02
3,C[C@@H]1CN([C@H](C)CO)C(=O)c2cc(Br)cnc2O[C@H]1CN(C)Cc1ccc2c(c1)OCO2,inactive: 0.997
4,CC(C)(N)c1cn(C2CCN(C(=O)C3CCC(C(C)(C)C)CC3)CC2)nn1 (configuration not stated),inactive: 0.988
5,C[C@H]1CCCCO[C@@H](CN(C)CC2CCCCC2)[C@@H](C)CN([C@@H](C)CO)C(=O)c2cc(NC(=O)Nc3ccccc3)ccc2O1,inactive: 0.977
6,C[C@H](CO)N1C[C@H](C)[C@H](CN(C)Cc2ccc3c(c2)OCO3)Oc2ccc(NC(=O)Nc3ccc(C(F)(F)F)cc3)cc2CC1=O,inactive: 0.946
7,Cc1ccc(S(=O)(=O)N(C)C[C@@H]2OCCCC[C@H](C)Oc3ccc(NC(=O)Nc4ccc5c(c4)OCO5)cc3C(=O)N([C@H](C)CO)C[C@@H]2C)cc1,inactive: 0.993
8,COc1ccc(S(=O)(=O)N(C)C[C@@H]2Oc3ccc(NS(C)(=O)=O)cc3C(=O)N([C@H](C)CO)C[C@H]2C)cc1,inactive: 0.991
9,C[C@@H]1CCCCO[C@@H](CN(C)C(=O)Nc2ccc3c(c2)OCO3)[C@@H](C)CN([C@H](C)CO)C(=O)c2cc(NC(=O)C3CCCCC3)ccc2O1,inactive: 0.984
10,C[C@@H]1CN([C@@H](C)CO)C(=O)c2cc(NS(=O)(=O)c3cccs3)ccc2O[C@H]1CN(C)C(=O)Nc1cccc2ccccc12,inactive: 0.982
11,COc1ccc(CN(C)C[C@@H]2OCCCC[C@@H](C)Oc3ccc(NC(=O)Nc4ccc(C(F)(F)F)cc4)cc3C(=O)N([C@H](C)CO)C[C@@H]2C)cc1,inactive: 1.05
12,C[C@H](CO)N1C[C@H](C)[C@@H](CN(C)S(=O)(=O)c2cccc(C#N)c2)OCc2cn(nn2)CCCC1=O,inactive: 0.99
13,Cc1ccc(S(=O)(=O)N(C)C[C@@H]2Oc3c(NS(=O)(=O)c4c(C)noc4C)cccc3C(=O)N([C@H](C)CO)C[C@@H]2C)cc1,inactive: 1
14,Cc1nn(C)c(COc2ccc(N3CCN(S(=O)(=O)N(C)C)CC3)cc2)c1-c1cccc2c(CCCOc3cccc4ccccc34)c(C(=O)O)n(CCN3CCNCC3)c12,inactive: 1.01
15,COC(=O)c1cn(CC(=O)N2CCN(C)CC2)nn1,inactive: 0.978
16,C[C@H](CO)N1C[C@H](C)[C@@H](CN(C)S(=O)(=O)c2cccs2)Oc2c(NS(C)(=O)=O)cccc2C1=O,inactive: 0.995
17,C[C@H](CO)N1C[C@H](C)[C@@H](CN(C)Cc2ccc(Oc3ccccc3)cc2)Oc2c(NC(=O)c3ccncc3)cccc2C1=O,inactive: 1.06
18,C[C@H](CO)N1C[C@H](C)[C@H](CN(C)S(=O)(=O)c2ccccc2)Oc2ccc(NS(=O)(=O)c3cn(C)cn3)cc2CC1=O,inactive: 0.956
19,O=C(O)c1cc(-n2cnnn2)ccc1O,inactive: 1.02

row,SMILES,relative growth
1,CC(C)NC(=O)Nc1ccc2c(c1)C(=O)N([C@@H](C)CO)C[C@@H](C)[C@@H](CN(C)Cc1ccc(C(F)(F)F)cc1)OCCCC[C@H](C)O2,inactive: 0.934
2,C[C@@H]1CCCCO[C@@H](CN(C)Cc2ccc(C(F)(F)F)cc2)[C@H](C)CN([C@H](C)CO)C(=O)c2cc(NS(=O)(=O)c3cccs3)ccc2O1,inactive: 1.05
3,Cc1noc(C)c1S(=O)(=O)N(C)C[C@@H]1Oc2ccc(NC(=O)c3ccncc3)cc2CC(=O)N([C@H](C)CO)C[C@@H]1C,inactive: 1.01
4,C[C@@H]1CN([C@@H](C)CO)C(=O)c2cccc(NC(=O)Nc3ccc(C(F)(F)F)cc3)c2O[C@H]1CN(C)Cc1ccncc1,inactive: 0.943
5,C[C@H](CO)N1C[C@H](C)[C@@H](CN(C)C(=O)Nc2ccc3c(c2)OCCO3)OCc2cnnn2CCCC1=O,inactive: 0.975
6,COc1ccc(CN(C)C[C@H]2Oc3c(NC(=O)CCCCCC(=O)Nc4ccccc4N)cccc3C(=O)N([C@@H](C)CO)C[C@@H]2C)cc1,inactive: 0.993
7,OC[C@H]1O[C@H]2O[C@@H]3[C@@H](O)[C@H](O)[C@H](O[C@@H]4[C@@H](O)[C@H](O)[C@H](O[C@@H]5[C@@H](O)[C@H](O)[C@H](O[C@@H]6[C@@H](O)[C@H](O)[C@H](O[C@@H]7[C@@H](O)[C@H](O)[C@H](O[C@@H]8[C@@H](O)[C@H](O)[C@H](O[C@@H]1[C@@H](O)[C@@H]2O)O[C@@H]8CO)O[C@@H]7CO)O[C@@H]6CO)O[C@@H]5CO)O[C@@H]4CO)O[C@@H]3CO,inactive: 0.999
8,Cc1noc(C)c1NC(=O)Nc1ccc2c(c1)CC(=O)N([C@@H](C)CO)C[C@H](C)[C@@H](CN(C)C(=O)Nc1ccc(C(F)(F)F)cc1)O2,inactive: 0.99
9,Cc1ccc(S(=O)(=O)Nc2ccc3c(c2)C(=O)N([C@@H](C)CO)C[C@@H](C)[C@H](CN(C)C(=O)c2ccccc2)OCCCC[C@H](C)O3)cc1,inactive: 1
10,C[C@@H]1CCCCO[C@@H](CN(C)Cc2ccc3c(c2)OCO3)[C@@H](C)CN([C@@H](C)CO)C(=O)c2cc(NS(=O)(=O)c3ccc(Cl)cc3)ccc2O1,inactive: 0.945
11,Cc1cc2c(cc1S(N)(=O)=O)S(=O)(=O)CCC2,inactive: 0.972
12,Cc1ccc(S(=O)(=O)Nc2ccc3c(c2)C(=O)N([C@H](C)CO)C[C@@H](C)[C@H](CN(C)S(C)(=O)=O)O3)cc1,inactive: 0.992
13,COc1ccc(CN(C)C[C@H]2OCCCC[C@H](C)Oc3ccc(NS(=O)(=O)c4ccccc4)cc3C(=O)N([C@@H](C)CO)C[C@H]2C)cc1,inactive: 0.984
14,COc1ccccc1CN(C)C[C@H]1OCc2ccccc2-c2c(n(C)c3ccccc23)C(=O)N([C@@H](C)CO)C[C@@H]1C,inactive: 0.983
15,C[C@@H]1CCCCO[C@@H](CN(C)C(=O)CCC(F)(F)F)[C@@H](C)CN([C@@H](C)CO)C(=O)c2cc(NC(=O)Nc3ccc4c(c3)OCO4)ccc2O1,inactive: 0.994
16,COc1ccc(S(=O)(=O)Nc2cccc3c2O[C@@H](CN(C)S(C)(=O)=O)[C@@H](C)CN([C@@H](C)CO)C3=O)cc1,inactive: 1
17,CC(C)NC(=O)Nc1ccc2c(c1)C(=O)N([C@H](C)CO)C[C@H](C)[C@H](CN(C)C(=O)Nc1ccc(F)cc1)OCCCC[C@@H](C)O2,inactive: 0.973
18,N[C@@H]1CC[C@@H](CCn2cc(C3(O)CCCC3)nn2)O[C@H]1CO,inactive: 0.99
19,C[C@H]1CN([C@@H](C)CO)C(=O)c2ccccc2-c2ccccc2CO[C@H]1CN(C)C(=O)Nc1cccc(F)c1,inactive: 1.02

row,SMILES,relative growth
1,C[C@H](CO)N1C[C@H](C)[C@@H](CN(C)S(=O)(=O)c2ccc(F)cc2)Oc2c(NS(C)(=O)=O)cccc2C1=O,inactive: 0.995
2,C[C@H]1CN([C@@H](C)CO)C(=O)c2cccc(NC(=O)NC3CCCCC3)c2O[C@H]1CN(C)S(=O)(=O)c1cn(C)cn1,inactive: 0.992
3,C[C@@H]1CN([C@H](C)CO)C(=O)c2cccc(NC(=O)Nc3ccc(C(F)(F)F)cc3)c2O[C@H]1CN(C)CC1CCCCC1,inactive: 0.898
4,C[C@@H]1CN([C@H](C)CO)C(=O)c2ccccc2-c2ccccc2CO[C@@H]1CN(C)Cc1ccccc1C(F)(F)F,inactive: 1.03
5,c1ccc(Nc2ncnc3sc(-c4ccccc4)cc23)cc1,inactive: 1.03
6,COc1ccc(S(=O)(=O)N(C)C[C@@H]2Oc3ccc(NC(=O)Nc4cccc5c4CCCC5)cc3CC(=O)N([C@@H](C)CO)C[C@@H]2C)cc1Cl,inactive: 1.01
7,C[C@H](CO)N1C[C@H](C)[C@H](CN(C)C(=O)Nc2ccccc2C(F)(F)F)OCc2cnnn2CCCC1=O,inactive: 1.02
8,C[C@@H]1CN([C@@H](C)CO)C(=O)c2cc(NS(=O)(=O)c3cn(C)cn3)ccc2O[C@@H]1CN(C)Cc1ccncc1,inactive: 0.994
9,C[C@H](CO)N1C[C@H](C)[C@H](CN(C)Cc2ccc(-c3ccccc3)cc2)Oc2ccc(NC(=O)Nc3ccc4c(c3)OCO4)cc2C1=O,inactive: 0.985
10,C[C@H](CO)N1C[C@H](C)[C@H](CN(C)Cc2ccc(C(F)(F)F)cc2)OCCCC[C@H](C)Oc2ccc(NS(C)(=O)=O)cc2C1=O,inactive: 0.991
11,Cc1[nH]c(=O)[nH]c(=O)c1S(=O)(=O)NCc1ccccn1,inactive: 1.01
12,C[C@@H]1CCCCO[C@@H](CN(C)C(=O)C2CCCCC2)[C@@H](C)CN([C@H](C)CO)C(=O)c2cc(NC(=O)Nc3ccc4c(c3)OCO4)ccc2O1,inactive: 0.954
13,CCNC(=O)[C@H]1[C@H](CO)[C@H]2Cn3c(ccc(C4=CCCC4)c3=O)[C@@H]1N2S(=O)(=O)c1cn(C)cn1,inactive: 0.993
14,O=C(O)c1cc2cc(F)ccc2s1,inactive: 0.967
15,CCCCCOC(=O)Nc1nc(=O)n(C2OC(C)C(O)C2O)cc1F (configuration not stated),inactive: 1.1
16,C[C@@H]1CN([C@H](C)CO)C(=O)c2cc(NC(=O)NC3CCCCC3)ccc2O[C@@H](C)CCCCO[C@H]1CN(C)C(=O)CCC(F)(F)F,inactive: 0.99
17,C[C@H](CO)N1C[C@H](C)[C@@H](CN(C)C(=O)Nc2ccc(C(F)(F)F)cc2)Oc2c(NC(=O)c3ccc(-c4nccs4)cc3)cccc2C1=O,inactive: 0.947
18,Nc1nc(=O)n(C2CSC(CO)O2)cc1F (configuration not stated),inactive: 1.06
19,COc1cccc(C#Cc2ccc3c(c2)O[C@H](CN(C)C(=O)CN2CCOCC2)[C@@H](C)CN([C@@H](C)CO)S3(=O)=O)c1,inactive: 1.02
